Measurements: PubChem BioAssay AID493208 (National Center for Advancing Translational Sciences (NCATS), 2011)
Screen size: about 44,000 compounds; about 340 (0.77%) were called active. Another 5% or so got no clear call; they are omitted. The call rests on the fitted dose curve; in most records, active means well fitted inhibition curve with a large enough effect; inconclusive means small, poorly fitted or top-dose-only effect; inactive means flat fitted curve, though single readings scatter. The list shows a part of the results.

experiment: Acumen qHTS Assay for Inhibitors of the mTORC1 Signaling Pathway in MEF (Tsc2-/-, p53-/-) Cells: Sytravon; details: phospho-rpS6 immunofluorescence/PI, 24 h; series mostly up to 38.3 µM; activity change, negative = inhibition: at the top concentration; further: nearly all actives have a fitted effect of over 50% in size;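 on activity change, negative = inhibition: plate controls were DMSO for no effect and rapamycin for full effect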
Outline: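 Cell-based qHTS: Tsc2-/- p53-/- MEF, 24 h cpd, 37 °C; fix/perm, anti-phospho-S6 Alexa-488 + PI; Acumen 488 nm scan; pS6/PI ratio, % positive cells; rapamycin 7.5 nM = inhibition ref; PI count = viability.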
Potency means the concentration at half of the fitted maximal effect.

Compound	activity change, negative = inhibition	Potency
CCn1c(CN2CCC(C)CC2)nc2cc(NC(=O)COc3ccc(Cl)c(C)c3)ccc21	inactive: -7.45%	
CN(Cc1ccccc1)c1ccc(-c2nc(-c3ccccn3)no2)cc1[N+](=O)[O-]	inactive: -4.57%	
COc1cccc(N2CCN(C(=O)c3cc4cc5cc(C)ccc5nc4s3)CC2)c1	inactive: -4.98%	
COc1ccc(-c2nc(CSCC(=O)NCCc3ccccc3)c(C)o2)cc1	inactive: -17.7%	
CCc1ccc(-n2c(SCc3ccccc3Cl)nc3[nH]ncc3c2=O)cc1	inactive: -9.21%	
CCC(=O)N1c2ccccc2CC1C(=O)NCc1ccccc1Cl (centres undefined)	inactive: 0%	
Cc1cccc(NC(=O)CCn2cnnn2)c1C	inactive: 6.31%	
Cc1ccc(CNC(=O)c2ccc(Cn3c(=O)c4ccccc4n(CC(=O)Nc4ccc(C)cc4)c3=O)cc2)cc1	inactive: 8%	
Cc1cccc(NC(=O)Cn2cc(C(=O)c3ccco3)c3ccccc32)c1	inactive: 0.172%	
Cc1ccccc1OCCn1c(-c2ccc(Cl)cc2)nc2ccccc2c1=O	inactive: -16.9%	
O=C(NC1(C(F)(F)F)C(=O)Nc2c1c(=O)[nH]c(=O)n2-c1ccc(Cl)cc1)c1ccccc1F (centres undefined)	inactive: -15.5%	
COc1ccc(Cn2cc(S(=O)(=O)c3ccc(Cl)cc3)c(=O)c3cc4c(cc32)OCO4)cc1	inactive: -13.6%	
CCc1ccccc1Nc1nn2c(=O)c3ccc(C(=O)NCCCOC(C)C)cc3nc2s1	inactive: -5.33%	
O=C(Nc1ccc2oc(-c3ccncc3)nc2c1)c1ccccc1Cl	inactive: -25.1%	
Cc1oc(-c2ccc(Cl)cc2)nc1CSc1nc2ncccc2[nH]1	inactive: 0.505%	
O=C(OCc1cc(=O)n2nc(C3CCCCC3)sc2n1)c1ccc(F)cc1	inactive: -0.162%	
CCOc1ccc(NC(=O)CC2C(=O)N(c3ccc(Cl)cc3)C(=O)N2Cc2cccs2)cc1 (centres undefined)	inactive: -15.8%	
COc1cccc(NC(=O)c2ccc(-c3nc(COc4ccccc4)c(C)o3)cc2)c1	inactive: 3.07%	
COC(=O)c1c(NC(=O)/C(C#N)=C/c2ccccc2)sc2c1CCC2	inactive: -6.61%	
CCOc1ccc(NC(=O)c2sc3nc4c(c(-c5ccc(OC)cc5)c3c2N)C(=O)CC(C)(C)C4)cc1	inactive: -2.08%	
CCOc1ccc(-n2cc(-c3ccccc3)c3c(N4CCN(c5ccccc5OC)CC4)ncnc32)cc1	inactive: 9.32%	
CCCCN(CC)C(=O)CSc1c2c(nc3ccc(Cl)cc13)CCCC2	inactive: -11.1%	
COc1ccc(-c2noc(-c3cccnc3N3CCN(c4ccc(OC)cc4)CC3)n2)cc1	inactive: 0.241%	
CCOCCCNC(=O)CN1C(=O)COc2ccc(S(=O)(=O)N3CCCC3)cc21	inactive: -4.78%	
CCOC(=O)c1c(C)[nH]c(C)c1S(=O)(=O)N1CCCC(C(=O)NCc2ccc(Cl)cc2)C1 (centres undefined)	inactive: -0.697%	

Compound	activity change, negative = inhibition	Potency
COc1ccccc1Nc1cc(C(=O)NC2CCC(C)CC2)c2ccccc2n1 (centres undefined)	inactive: -4.63%	
CCN(C(=O)Nc1cn(CC(C)C)c(=O)c2ccccc12)c1cc(C)ccc1C	inactive: 6.41%	
Cc1ccc2nc(Nc3ccc(C)c(F)c3)c3nncn3c2c1	inactive: -4.46%	
Cc1ccc(CNC(=O)CCn2cnc3ccccc3c2=O)cc1	inactive: -12.8%	
Cc1c(Cl)cccc1NC(=O)C1CCN(c2ncnc3c2nc2n3CCCCC2)CC1	inactive: 0.222%	
COc1ccccc1CN1C(=O)CN(C2CCCCCC2)C(=O)C1c1ccc(F)cc1 (centres undefined)	inactive: 8.65%	
CCn1nc(C)c(CCN(C)C(=O)Nc2cc(OC)c(OC)c(OC)c2)c1C	inactive: 0%	
CCOC(=O)c1cnn(-c2ccc(C(=O)Nc3cccc(C(C)=O)c3)cc2)c1N	inactive: -2.31%	
Cc1ccc(N2CC(NC(=O)c3ccc(S(=O)(=O)N4CCOCC4)cc3)CC2=O)cc1 (centres undefined)	inactive: -1.22%	
COc1ccc2cc(C(=O)NCc3ccc4c(c3)CCN4C(=O)c3ccc(F)cc3)[nH]c2c1	inactive: -0.724%	
O=C(COCc1cc(-c2cccs2)on1)N1CCN(c2cccc(Cl)c2)CC1	inactive: -7.63%	
Fc1cccc(-c2nnn3c2nc(NCCc2ccccc2)c2ccccc23)c1	inactive: 0.674%	
O=C(CCn1c(=O)c2cccn2c2cccnc21)N1CCN(c2ccccc2F)CC1	inactive: 4.59%	
COc1cc(C)cc2oc(=O)c(CC(=O)NCCc3ccc(Cl)cc3)c(C)c12	inactive: 1.15%	
CC(C)CNC(=O)N1[C@H](c2cccs2)[C@@H](C)C(=O)[C@@H](C)[C@@H]1c1cccs1	inactive: -0.707%	
Cc1cccc(OCC(=O)Nc2ccc(-c3nc4ccccc4o3)cc2)c1C	inactive: -3.25%	
CCn1c(=N)n(CCOc2ccc(Br)cc2)c2ccccc21		active: 13.1 µM
COc1ccc(C)cc1NS(=O)(=O)c1c(C(=O)N2CCCCCC2)c(C)n(C)c1C	inactive: -0.0296%	
CC(C)OCCCNC(=O)Cn1ccc2cc(S(=O)(=O)N3CCCCCC3)ccc21	inactive: 0.613%	
COc1ccc(CC(=O)NCCc2csc(-c3cccc(C)c3)n2)cc1	inactive: -6.61%	
Cc1ccc(CCNS(=O)(=O)c2ccc3c(c2)CC(C)N3C(=O)C2CCC2)cc1 (centres undefined)	inactive: -17.7%	
Cc1oc(-c2ccccc2Cl)nc1Cn1c(SCc2cccc(F)c2)nc2cccnc21	inactive: 2.2%	
Cc1nc(-c2ccccc2)sc1-c1ccc(SCC(=O)NCc2ccc(Cl)cc2)nn1	inactive: -4.31%	
CC(=O)c1cccc(NC(=O)CC(c2ccc(C)cc2)N2Cc3ccccc3C2=O)c1 (centres undefined)	inactive: -7.72%	
CC(CNC(=O)c1nnc(Cc2ccc(F)cc2)o1)c1ccccc1 (centres undefined)	inactive: -21.8%	

Compound	activity change, negative = inhibition	Potency
Cc1ccc(-n2nc3c(=O)n(CC(=O)NCCC(C)C)nc(C)c3c2C)cc1	inactive: -9.77%	
COc1cc2ncc(C(=O)c3ccc(C)cc3)c(N3CCCCC3)c2cc1OC	inactive: -5.95%	
COCCCNC(=O)Cn1c(=O)nc(-c2ccccc2)c2ccccc21	inactive: 9.62%	
COc1ccc(Cn2cc(C(=O)c3ccc(C)c(C)c3)c(=O)c3ccccc32)cc1	inactive: -1.9%	
CCCCC12CN3CC(C)(CN(C1)C3c1ccc(O)c(OC)c1)C2=O (centres undefined)	inactive: 1.25%	
CCOc1ccc(CCNC(=O)c2cc(C)nc3c2c(C)nn3-c2cccc(F)c2)cc1	inactive: 6.77%	
Cc1cccn2c(=O)c(C(=O)NCCc3ccccc3)cnc12	inactive: -4.43%	
O=C(Cn1cc(S(=O)(=O)Cc2cccc(Cl)c2)c2ccccc21)Nc1ccccc1Cl	inactive: -4.26%	
COc1cccc(NC(=O)CSc2nccn2C2CCCC2)c1	inactive: -1.43%	
O=C(NC1CCCC1)c1ccc2c(c1)N(Cc1ccccc1)C(=O)c1ccccc1S2	inactive: 9.11%	
CC1CCN(c2nc3ccc(C(=O)NCc4ccccc4Cl)cc3s2)CC1	inactive: 1.63%	
COc1cccc(CNC(=O)Cc2c(C)c3ccc(OC)c(C)c3oc2=O)c1	inactive: -1.37%	
Cc1ccc(F)cc1NC(=O)Cn1c(C)cc(C)c(C#N)c1=O	inactive: -14.6%	
O=C(NCc1cccc(Br)c1)c1ccc(NC(=O)N2CCCCc3ccccc32)cc1	inactive: -12.6%	
COc1ccc(N2CCN(Cc3nc4c(c(=O)[nH]c(=O)n4C)n3CC(C)C)CC2)cc1	inactive: -17.2%	
Cc1ccc(S(=O)(=O)c2nnn3c2nc(NCCc2ccccc2)c2sccc23)cc1	inactive: -1.42%	
CC(=O)c1ccc(NS(=O)(=O)c2ccc3[nH]c4c(c3c2)CCCC4)cc1	inactive: -4.48%	
Cc1ccccc1C(=O)Nc1c(C)nc2ccccn2c1=O	inactive: 0%	
Cc1ccc(CNC(=O)c2c[nH]n3c(=O)c(Cc4ccc(Cl)cc4)c(C)nc23)cc1	inactive: -19.3%	
CCc1ccc(S(=O)(=O)c2cn(Cc3ccccc3F)c3cc(OC)c(OC)cc3c2=O)cc1	inactive: -8.34%	
CCOc1ccc(C2c3[nH]c4ccccc4c3CCN2C(=O)CSCc2ccc(F)cc2)cc1 (centres undefined)	inactive: -7.86%	
O=C(NCCc1ccccc1)c1nn(-c2ccc(F)cc2)nc1CO	inactive: -13.7%	
Cc1cccc(CNC(=O)c2ccc3nc(Cc4ccccc4)oc3c2)c1	inactive: -15.2%	
COc1ccc(NC(=O)CSc2nnc(NC(=O)NC3CCCCC3)s2)cc1OC	inactive: 2.08%	
Cc1cc(S(=O)(=O)NCC(c2ccco2)S(=O)(=O)c2cccs2)ccc1F (centres undefined)	inactive: -12.6%	

Compound	activity change, negative = inhibition	Potency
Cc1cccc(NC(=O)CS(=O)(=O)c2cccc3nsnc23)c1	inactive: -0.229%	
CCOc1ccc(CCNC(=O)CCCc2nnc3n(CC)c(=O)c4sccc4n23)cc1OCC	inactive: 3.43%	
CCOc1ccc(NC(=O)CSc2nnc(-c3ccc(OCC)cc3)o2)cc1	inactive: 0.756%	
Cc1ccc(NC(=O)Cn2c(=O)n(Cc3nc(-c4ccccc4)no3)c(=O)c3ccccc32)cc1C	inactive: -5.19%	
COC(=O)c1ccccc1NC(=O)CSc1nc(=O)cc(N)n1-c1ccccc1	inactive: -0.256%	
Cc1coc2cc3oc(=O)c(CC(=O)NCc4cccc(Cl)c4)c(C)c3cc12	inactive: 2.88%	
Cc1ccc(CNC(=O)c2c(-c3ccccc3Cl)noc2C)o1	inactive: 0%	
COc1ccc(CNC(=O)Nc2ccc3c(c2)N(C)C(=O)c2ccccc2S3)cc1OC	inactive: -10.6%	
COc1cc(OC)c(NC(=O)CN2CCCN(Cc3ccccc3C)S2(=O)=O)cc1Cl	inactive: 2.37%	
Cc1ccc(-n2nnnc2CNC(=O)c2ccc(F)cc2)cc1C	inactive: 0%	
COc1ccccc1-c1nn2c(=O)cc(CN3CCN(S(=O)(=O)c4ccc(C)cc4)CC3)nc2s1	inactive: 0.295%	
CCOC(=O)c1ccc(NC(=O)C2Cc3ccccc3C(=O)O2)cc1 (centres undefined)	inactive: -8.39%	
Cc1cccc(-c2noc(CNC(=O)c3ccco3)n2)c1	inactive: 8.32%	
CC(=O)Nc1ccc(C)cc1-c1nc2ccccc2n(CC(=O)c2ccc(Cl)cc2)c1=O	inactive: 5.54%	
COC(=O)c1cc2oc3ccccc3c2n1CC(=O)Nc1cc(OC)cc(OC)c1	inactive: -0.246%	
CC(=O)N(Cc1cccnc1)c1nc2ccc(F)cc2s1	inactive: -0.0506%	
COc1cccc2cc(-c3cn4c(n3)sc3cc(F)ccc34)c(=O)oc12	inactive: 1.76%	
COc1ccc(C(=O)NCC(c2cccs2)S(=O)(=O)c2ccc(F)c(C)c2)cc1 (centres undefined)	inactive: 1.12%	
CCOc1ccccc1C(=O)N1CCN(CCc2ccccn2)CC1	inactive: -9.99%	
Cc1ccc(C2=Nc3ccccc3N(CC(=O)Nc3ccccc3C)C(=O)C2)cc1C	inactive: 10.7%	
Cc1ccc(CNC(=O)NC2COc3ccccc3C2)cc1 (centres undefined)	inactive: -2.53%	
Cc1c(Cl)cccc1NC(=O)Cn1nc(C(F)(F)F)c2c1CCC2	inactive: -17.1%	
Cc1ccc(N2CCn3c2nc2c3c(=O)n(CCCc3ccccc3)c(=O)n2C)cc1	inactive: -4.57%	
COc1ccc(OC)c(CNC(=O)c2ccccc2NC(=O)c2nsc3ccccc23)c1	inactive: 0%	
